# Measurements as given in PubChem BioAssay AID1345083 (National Center for Advancing Translational Sciences (NCATS), 2018).
# About 6,200 (6.6%) of roughly 94,000 compounds were called active. This list was built around the results that the source calls inconclusive (neither active nor inactive); the mix of calls is not that of the screen. Calls follow the shape of the dose curve; as a rule, active = well fitted inhibition curve with a large enough effect; inconclusive = small, poorly fitted or top-dose-only effect; inactive = flat fitted curve, though single readings scatter. A potency beside an inconclusive call is a rough fit, not a confirmed value.
# Test: Cytotoxic Profiling in HEK 293 Cell Line of Diverse Libraries Using Quantitative High-Throughput Screening; also: nearly all actives have a fitted effect of over 60% in size
# Details: HEK 293 viability, ATP luminescence (CellTiter-Glo), 48-72 h; series mostly up to 115 µM
# Summary of the method: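 HEK 293 seeded at 250 cells/well receive compound via pintool. After 48 or 72 hr at 37 degree Celsius, 5% CO2 and 95% humidity, CellTiter-Glo is dispensed and luminescence read following 10 min at room temperature.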
# Potency is read from the fitted curve at half-maximal effect; tags tell the direction and shape of the fitted curve.
row,Compound,Potency
1,CCOC(=O)c1cccc(NC(=O)N2CC[C@@H](CC(=O)NCc3ccc(F)cc3)[C@@H](CC)C2)c1,"inconclusive: 89.1 µM [inhibitor, single point]"
2,Cc1ccsc1C(=O)N1CC[C@@H]2COCCN(Cc3ccncc3)[C@@H]2C1,"inconclusive: 10 µM [inhibitor, full curve, poor fit]"
3,O=C1NCCCCCN(C(=O)Cc2cccc(F)c2)[C@@H]2CCCC[C@H]12,"inconclusive: 89.1 µM [inhibitor, single point]"
4,Cn1ncc2c(C(=O)Nc3ccccc3F)cc(-c3ccccc3F)nc21,"inconclusive: 50.1 µM [inhibitor, partial curve, poor fit]"
5,COc1cccc(C(=O)N2CCCC(C(=O)N3CCC(c4nc5ccncc5[nH]4)CC3)C2)c1 (centres undefined),inactive
6,COCCC(=O)N[C@H]1CC[C@]2(C)CCC([C@H](C)C(=O)N3CCc4ccccc4C3)[C@H](O)[C@H]2[C@@H]1C (some centres undefined),inactive
7,CC(C)Cc1cnc(C2CCCN(C(=O)OC(C)(C)C)C2)[nH]1 (centres undefined),"inconclusive: 100 µM [inhibitor, partial curve, poor fit]"
8,Cc1cccc(C(=O)N2CCCC(c3noc(-c4cc5c(=O)[nH]c(C)cn5n4)n3)C2)c1 (centres undefined),"inconclusive: 89.1 µM [inhibitor, partial curve, poor fit]"
9,Cc1nc(N2CCC(NC(=O)C3CCCCC3)CC2)cc(C(F)(F)F)n1,"inconclusive: 25.1 µM [inhibitor, full curve]"
10,O=C(Cc1ccccc1)Nc1ccc([C@H]2OCC(=O)N[C@@H]2CO)cc1,inactive
11,CNC(=O)[C@@H]1CN(C(=O)c2nn(C)c3ccccc23)C[C@H]1c1n[nH]c(C)n1,inactive
12,CC1(C)C(=O)N(CCOc2ccccc2)[C@H]2CN(Cc3ccc4c(c3)CCO4)C[C@@H]2[S+]1(=O)[O-],"inconclusive: 50.1 µM [inhibitor, partial curve, poor fit]"
13,COc1cccc(-c2cc(C(=O)NCC(=O)c3ccccc3)c3cnn(C)c3n2)c1,inactive
14,COCCCNC(=O)N1CC2(CCCCC2)CC1COc1ccc(OC)cc1 (centres undefined),"inconclusive: 89.1 µM [inhibitor, single point]"
15,COCCOc1ccnc(-c2noc([C@@H]3CCCN3CC(C)(C)C)n2)c1,"inconclusive: 100 µM [inhibitor, partial curve]"
16,CC(C)c1noc(-c2cn(C3CCCN(C(=O)c4cccs4)C3)nn2)n1 (centres undefined),"inconclusive: 79.4 µM [inhibitor, partial curve, poor fit]"
17,O=S1(=O)c2cccnc2OC(COc2ccccc2)CN1Cc1cccs1 (centres undefined),"inconclusive: 31.6 µM [inhibitor, partial curve, poor fit]"
18,CN(C)CCNc1cc2c(cn1)NCCN(Cc1ccccc1)C2,"inconclusive: 100 µM [inhibitor, partial curve]"
19,COc1ccc(Nc2cc3c(cn2)CN(CCc2ccccc2)CCN3)cc1,active: 31.6 µM
20,O=C(NCCc1ccc(F)cc1)C1CCCN1Cc1ccc(-c2cncnc2)cc1 (centres undefined),"inconclusive: 50.1 µM [inhibitor, partial curve, poor fit]"
21,C[S+](=O)([O-])CCn1ncc2cc(OCc3cccc(-c4cccc(F)c4)c3)ccc21,"inconclusive: 25.1 µM [inhibitor, full curve, poor fit]"
22,O=C(c1nc2cccnc2n(C2CC2)c1=O)N1CCN([S+](=O)([O-])c2cccc(C(F)(F)F)c2)CC1,inactive

row,Compound,Potency
1,O=C(N[C@H]1CCN2C(=O)c3cc(Br)ccc3NC(=O)[C@@H]2C1)c1ccco1,"inconclusive: 112 µM [inhibitor, single point]"
2,COc1ccc2[nH]cc(CCNC(=O)c3c(-c4ccccc4)cc(=O)n4c3CCCC4)c2c1,"inconclusive: 22.4 µM [inhibitor, full curve, poor fit]"
3,COc1ccccc1Cn1c(C(C)NC(=O)OCc2ccccc2)nc2cccnc21 (centres undefined),"inconclusive: 100 µM [inhibitor, partial curve, poor fit]"
4,NC1CC(c2cc(N3CCN(c4cnccn4)CC3)nc(C3CC3)n2)C1 (centres undefined),"inconclusive: 28.2 µM [inhibitor, single point]"
5,Cc1ccc(-c2nocc2CCC(=O)NCc2ccc(F)cc2Cl)cc1,"inconclusive: 56.2 µM [inhibitor, partial curve, poor fit]"
6,COc1cc(OC)cc(C(=O)N2CCCN(C)c3ccccc32)c1,"inconclusive: 56.2 µM [inhibitor, partial curve, poor fit]"
7,O=C(c1ccoc1)N1CCC(Oc2ncccc2C(=O)N2CCOCC2)C1 (centres undefined),inactive
8,COC(=O)N1CCCC(C(=O)N2CCCC(c3nc4ccncc4[nH]3)C2)C1 (centres undefined),inactive
9,CCc1noc([C@@H]2CC(F)(F)CN2C(=O)C2CCNCC2)n1,inactive
10,O=C(Cc1ccc(F)cc1)N1CCN(c2nccc(Nc3ccccc3Cl)n2)CC1,active: 39.8 µM
11,O=C(NCc1ccc(F)c(F)c1)C1CCCN(c2ccnc3ccnn23)C1 (centres undefined),"inconclusive: 50.1 µM [inhibitor, partial curve, poor fit]"
12,O=C1CSC2(CCN(S(=O)(=O)c3ccc(F)cc3)CC2)N1Cc1ccco1,"inconclusive: 89.1 µM [inhibitor, single point]"
13,O=C(c1ccc2[nH]ccc2c1)N1CCCC(n2cc(-c3nc(C4CC4)no3)nn2)C1 (centres undefined),"inconclusive: 35.5 µM [inhibitor, partial curve, poor fit]"
14,O=C1NC2(CCCN(C(=O)c3ccc(F)cc3)C2)COc2ccccc21 (centres undefined),"inconclusive: 56.2 µM [inhibitor, partial curve, poor fit]"
15,CC(C)N1CCC(Cc2ccc(CCNC(=O)c3cccs3)cc2)CC1,"inconclusive: 22.4 µM [inhibitor, partial curve, poor fit]"
16,COc1ccc(NC(=O)CCC2CCN(C(=O)c3ccccc3F)CC2)c(OC)c1,"inconclusive: 56.2 µM [inhibitor, partial curve, poor fit]"
17,Cn1nccc1C(=O)N1C[C@@H](Oc2cccnc2)C[C@H]1C(=O)N1CCCC1,inactive
18,CCc1cc(=O)n(CC(=O)Nc2cccc(C(C)C)c2)c(N2CCOCC2)n1,"inconclusive: 50.1 µM [inhibitor, partial curve, poor fit]"
19,Cn1ccc(NC(=O)[C@@H]2C[C@H](c3ccc(F)cc3)N(Cc3ccccc3Cl)C2)n1,active: 50.1 µM
20,COCCNC(=O)C1CCN(C(=O)C2CN(c3cccc(OC)c3)C(=O)N2)C1 (centres undefined),"inconclusive: 89.1 µM [inhibitor, partial curve, poor fit]"
21,CCc1ccc(NC(=O)N2CCC(OC3CCN(S(C)(=O)=O)CC3)CC2)cc1,inactive
22,Cc1ccccc1S(=O)(=O)N1CCC2(CC1)CC(OCC1CC1)CCO2 (centres undefined),"inconclusive: 89.1 µM [inhibitor, single point]"

row,Compound,Potency
1,CN(C)C(=O)N1CCC(C(=O)N2CCC(N3Cc4cccn4C3=O)CC2)CC1,inactive
2,O=C(C[C@H]1NC(=O)c2ccccc2NC1=O)Nc1nc(-c2ccncc2)cs1,inactive
3,O=C(c1cc2ccccc2o1)N1CCCC2(CNS(=O)(=O)c3cccnc3O2)C1 (centres undefined),inactive
4,Cc1cc(C)c(CNC(=O)c2nc(-c3cccc(O)c3)cc3[nH]ccc23)c(=O)[nH]1,active: 79.4 µM
5,COCCN1C(=O)CS(=O)(=O)C12CCN(C(=O)c1cc(F)ccc1Cl)CC2,inactive
6,COc1ccccc1-c1[nH]nc2ncc(-c3ccnn3C)nc12,"inconclusive: 100 µM [inhibitor, partial curve, poor fit]"
7,CC(C)N1C[C@H](O)C[C@H]1c1nnc2n1CCN(C(=O)c1ccsc1)C2,inactive
8,O=C(NCc1ccc(Cl)cc1)[C@@H]1Cc2nc[nH]c2CN1Cc1cc2ccccc2o1,"inconclusive: 126 µM [inhibitor, single point]"
9,COc1cccc(C(=O)N2CCC(n3cc(-c4nc(C5CC5)no4)nn3)C2)c1 (centres undefined),inactive
10,Cc1noc(C)c1C(=O)N1CC(N2C(=O)c3c(c(C)nn3-c3ccccc3)C2C2CC2)C1 (centres undefined),"inconclusive: 25.1 µM [inhibitor, partial curve, poor fit]"
11,C[S+](=O)([O-])CCn1ncc2cc(OCc3cccc(-c4cncnc4)c3)ccc21,"inconclusive: 100 µM [inhibitor, partial curve]"
12,CC(C(=O)NC1CC1)[C@@H]1CC[C@@]2(C)CC[C@H](NC(=O)CC(C)(C)C)[C@@H](C)[C@@H]2[C@H]1O (some centres undefined),inactive
13,O=C(CC1CCCC1)N1CC(c2noc(COc3ccccc3)n2)C1,"inconclusive: 50.1 µM [inhibitor, partial curve, poor fit]"
14,COc1cccc(CCC(=O)N2CCc3nn(CC4CC4)c(=O)n3CC2)c1,inactive
15,COc1cccc(N2CC(C(=O)N3CCOCC3)NC2=O)c1 (centres undefined),inactive
16,O=C1NC2(CCN(Cc3cccc4ccccc34)C2)OCc2ccccc21 (centres undefined),"inconclusive: 56.2 µM [inhibitor, partial curve, poor fit]"
17,CNC(=O)CCC[C@@H]1[C@H]2CCCN3CCC[C@@H](CN1C(=O)CCOC)[C@@H]23,inactive
18,O=C(Nc1ccc(Cl)cc1Cl)c1c[nH]c2cccnc12,"inconclusive: 112 µM [inhibitor, single point]"
19,N#Cc1ccc(C(=O)NC2CCCN(c3cc(-c4ccc(F)cc4)[nH]n3)C2)cc1 (centres undefined),"inconclusive: 17.8 µM [inhibitor, full curve, poor fit]"
20,CC(=O)N1CCC(Cc2ccc(C(=O)N(C)Cc3cccnc3)cc2)CC1,"inconclusive: 56.2 µM [inhibitor, partial curve, poor fit]"
